# Data: PubChem BioAssay AID1768 (National Center for Advancing Translational Sciences (NCATS), 2009)
# Values joined by “and” are separate entries in the source; they are usually repeats but may differ in a detail not shown here. Equal values may be shown once. In all, about 270,000 compounds went through this assay and about 620 (0.23%) were called active. This list was built around the results that the source calls inconclusive (neither active nor inactive); the mix of calls is not that of the screen. The call rests on the fitted dose curve; in most records, active means well fitted inhibition curve with a large enough effect in the polarisation, with a control signal flat (not every such curve was filed as active); inconclusive means small, poorly fitted or top-dose-only effect, or effect the other way, or a change in a side signal; inactive means no such curve, though single readings can be large or run the other way; the % refers to the polarisation. Potencies beside an inconclusive call are fits to weak or partial responses and may not hold up. A note “side channel” means that the fit belongs to a control or component signal, not to the main read-out.
# Target: Menin (Homo sapiens) (UniProt O00255)
# Test: qHTS Assay for Inhibitors Targeting the Menin-MLL Interaction in MLL Related Leukemias: Competition With Texas Red Labeled MLL-derived Mutant Peptide; on FP activity change, negative = inhibition: % of control where 0% means no effect
# Conditions: fluorescence polarization; series mostly up to 61.6 µM
# Potency means the concentration at half of the fitted maximal effect; tags describe the fitted curve by direction and shape or compound fluorescence and quenching.
# Chain of UniProt O00255 (O00255 whole entry, looked up): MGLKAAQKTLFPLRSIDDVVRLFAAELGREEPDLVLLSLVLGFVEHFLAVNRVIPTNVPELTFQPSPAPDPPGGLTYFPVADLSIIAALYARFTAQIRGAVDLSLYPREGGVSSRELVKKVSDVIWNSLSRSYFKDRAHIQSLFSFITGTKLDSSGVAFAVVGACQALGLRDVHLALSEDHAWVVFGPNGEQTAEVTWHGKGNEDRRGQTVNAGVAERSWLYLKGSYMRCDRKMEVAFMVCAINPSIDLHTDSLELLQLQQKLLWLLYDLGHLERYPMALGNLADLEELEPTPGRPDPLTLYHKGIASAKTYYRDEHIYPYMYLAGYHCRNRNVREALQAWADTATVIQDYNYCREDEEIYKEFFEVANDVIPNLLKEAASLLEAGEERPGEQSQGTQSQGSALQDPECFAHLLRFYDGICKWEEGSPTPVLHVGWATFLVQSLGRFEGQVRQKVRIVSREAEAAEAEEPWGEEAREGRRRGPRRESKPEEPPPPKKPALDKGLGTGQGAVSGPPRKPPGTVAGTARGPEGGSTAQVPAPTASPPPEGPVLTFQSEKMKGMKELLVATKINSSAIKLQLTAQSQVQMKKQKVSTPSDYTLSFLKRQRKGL
SMILES,Potency,"FP activity change, negative = inhibition"
CN1CC(C(=O)c2cccs2)C(c2ccc(Cl)cc2)C1 (centres undefined),"inconclusive: 17.8 µM [fluorescent, side channel, partial curve]",–
CN(C)C(=O)OCc1n(C)cc[n+]1C,inactive,–
CCCCCc1cc(O)c2c(c1)OC(C)(C)[C@@H]1CCC(C(=O)O)=C[C@H]21,"inconclusive: 14.1 µM [quencher, side channel, partial curve]",–
CCN1C[C@]2(COC(=O)c3ccccc3N)CC[C@H](OC)C34[C@@H]5C[C@H]6[C@H](OC)[C@@H]5[C@](O)(C[C@@H]6OC)[C@@](O)([C@H]13)[C@@H](OC)[C@@H]42,"inconclusive: 39.8 µM [inhibitor, single point]",–
CC1=NN(Cc2c[nH]c3ccccc23)C(C)(C)C1,"inconclusive: 39.8 µM [quencher, side channel, single point]",–
CC(C)[C@H]1C(=O)O[C@H](C(C)C)C(=O)N(C)[C@@H](C(C)C)C(=O)O[C@H](C(C)C)C(=O)N(C)[C@@H](C(C)C)C(=O)O[C@H](C(C)C)C(=O)N1C,"inconclusive: 2.82 µM [fluorescent, side channel, full curve]",–
CN(C)c1ccc(/C=C/c2cc[n+](C)c3ccccc23)cc1,"inconclusive: 39.8 µM [fluorescent, partial curve]",–
COC(=O)[C@@H]1[C@@H](O)[C@@]2(O)c3c(OC)cc(OC)cc3O[C@@]2(c2ccc(OC)cc2)[C@H]1c1ccccc1,–,inactive: 10.1% [at 11.7 µM]
CCOC(=O)c1ccc(NC(=O)c2c(O)[nH]c(=O)[nH]c2=O)cc1,"inconclusive: 31.6 µM [quencher, side channel, single point]",–
O=c1[nH]c2ccccc2n1CCCN1CCC(n2c(=O)[nH]c3cc(Cl)ccc32)CC1,"inconclusive: 17.8 µM [inhibitor, single point]",–
C/C=C(/C)C(=O)O[C@H]1C(C)=C2C([C@@H]1OC(=O)CCCCCCC)[C@@](C)(OC(C)=O)C[C@@H](OC(=O)CCC)[C@@]1(O)[C@H]2OC(=O)[C@@]1(C)O (some centres undefined),"inconclusive: 10 µM [fluorescent, side channel, partial curve]",–
[Hg+][c]1ccccc1,inactive,–
CN1C[C@H](CNC(=O)OCc2ccccc2)C[C@H]2c3cccc4c3c(cn4C)C[C@@H]21,"inconclusive: 6.31 µM [fluorescent, side channel, partial curve] and inconclusive: 14.1 µM [fluorescent, side channel, partial curve]",–
O=[N+]([O-])c1ccc(NCc2ccccc2)c2nonc12,"inconclusive: 35.5 µM [quencher, side channel, single point]",–
CN(C)P(=O)(C(Cl)=C(N1CCCCC1)N1CCCCC1)N(C)C,inactive,–
CC(C)[N+](C)(CCC(C(N)=O)(c1ccccc1)c1ccccc1)C(C)C,inactive,–
COc1ccccc1OC(C)C(=O)N1CCC(Cc2ccccc2)CC1 (centres undefined),"inconclusive: 3.98 µM [fluorescent, side channel, partial curve]",–
Oc1ccc(C[C@H]2NCCc3cc(O)c(O)cc32)cc1O,"inconclusive: 14.1 µM [quencher, side channel, partial curve]",–
NCCNC[C@@H](N)CCCN=C(N)N[N+](=O)[O-],"inconclusive: 0.891 µM [fluorescent, side channel, full curve, poor fit]",–
Nc1ccc(C2(c3ccc(N)cc3)c3ccccc3-c3ccccc32)cc1,"inconclusive: 35.5 µM [quencher, side channel, single point]",–
CCOc1cc2c(cc1OCC)-n1cccc1C(c1ccc(OC(F)F)cc1)NC2 (centres undefined),inactive,–
CC1N(C)c2cc(NC(=O)c3ccco3)c(P(=O)(Nc3ccc([N+](=O)[O-])cc3)N3CCOCC3)cc2C1(C)C (centres undefined),"inconclusive: 22.4 µM [fluorescent, side channel, single point]",–
CCOC(=O)C1(CCc2ccccc2)CCN(Cc2ccco2)CC1,"inconclusive: 3.55 µM [fluorescent, side channel, full curve]",–
CCCCCCCCCCCCN=C(N)N,"inconclusive: 15.8 µM [inhibitor, partial curve]",–
CCOC(=O)C1(CCc2ccccc2)CCN(Cc2csc(C(C)=O)c2)CC1,"inconclusive: 6.31 µM [fluorescent, side channel, partial curve]",–
Cc1noc(C(=O)Nc2sc3c(c2C#N)CCC3)c1Cl,"inconclusive: 14.1 µM [quencher, side channel, partial curve]",–
CN1C(=O)C(=Cc2ccccc2OCc2ccccc2Cl)C(=O)N(C)C1=O,inactive,–

SMILES,Potency,"FP activity change, negative = inhibition"
O=C(O)c1ccccc1-c1c2cc(Br)c(=O)cc-2oc2[c]([Hg])c(O)c(Br)cc12,"inconclusive: 7.08 µM [fluorescent, side channel, full curve] and inconclusive: 1.78 µM [fluorescent, side channel, full curve]",–
CCCOc1ccccc1NP(=O)(Oc1ccccc1)Oc1ccccc1,"inconclusive: 2.24 µM [fluorescent, side channel, full curve, poor fit]",–
CCC/C=C(\CCC)C(NP(=O)(c1ccccc1)c1ccccc1)c1ccccc1 (centres undefined),"inconclusive: 1.12 µM [fluorescent, side channel, full curve, poor fit]",–
CCCCc1nc2ccccc2c(=O)n1-c1ccc(Cl)cc1[N+](=O)[O-],"inconclusive: 1.41 µM [inhibitor, full curve, poor fit]",–
CCn1cc(C(=O)N2CCOCC2)c2ccccc21,inactive,–
CC1(C)S[C@@H]2[C@H](NC(=O)COc3ccccc3)C(=O)N2C1C(=O)OCc1cc2ccccc2n1S(=O)(=O)c1ccccc1 (some centres undefined),"inconclusive: 3.55 µM [inhibitor, partial curve]",–
Nc1ncnc2c1ncn2[C@@H]1O[C@@H]2CO[P@](=O)(S)O[C@H]2[C@H]1O,"inconclusive: 3.16 µM [inhibitor, partial curve, poor fit]",–
CCN(C(=O)CSc1ncccc1C(=O)Oc1cccc([N+](=O)[O-])c1)c1cccc(C)c1,"inconclusive: 7.94 µM [fluorescent, side channel, partial curve]",–
CCCCCCCC/C=C\CCCCCCCC(N)=O,"inactive and inconclusive: 44.7 µM [inhibitor, single point]",–
Oc1cc[c]([Hg][Cl])cc1,inactive,–
CCN(CC)CCCNC(=O)c1c(O)c2ccccc2n(Cc2ccccc2)c1=O,"inconclusive: 7.94 µM [fluorescent, side channel, full curve]",–
COc1cc(-c2oc3cc(O)cc(O)c3c(=O)c2O)ccc1O,"inconclusive: 35.5 µM [quencher, side channel, single point] and inconclusive: 22.4 µM [quencher, side channel, partial curve]",–
O=C1CC(c2ccc(O)cc2)Oc2cc(O)cc(O)c21 (centres undefined),"inconclusive: 25.1 µM [quencher, side channel, partial curve] and inconclusive: 39.8 µM [quencher, side channel, single point]",–
COc1ccc(OC)c(N2C(=O)NC(=O)/C(=C/c3ccc([N+](=O)[O-])s3)C2=O)c1,"inconclusive: 25.1 µM [quencher, side channel, single point]",–
Cc1ccc(OP(=O)(Nc2cccc(C)c2)Oc2ccc(C)cc2)cc1,"inconclusive: 3.55 µM [fluorescent, side channel, full curve]",–
O=C1NC(=O)N(CCc2ccc(F)cc2)C(=O)/C1=C\C=C\c1ccccc1,"inconclusive: 25.1 µM [quencher, side channel, partial curve]",–
S=C(Nc1ccccc1)Nc1cccc(Br)c1,"inconclusive: 35.5 µM [quencher, side channel, single point]",–
CC(=O)N1CC(=O)Nc2ccc(Cl)cc2C1c1ccccc1 (centres undefined),inactive,–
Nc1c(C(=O)NCc2ccco2)c2nc3ccccc3nc2n1CCN1CCOCC1,inactive,–
O=C1C(I)=CC(=C(c2cc(I)c(O)c(I)c2)c2ccccc2C(=O)O)C=C1I,"inconclusive: 7.94 µM [quencher, side channel, full curve]",–
ClCC1CO1 (centres undefined),inactive,–
CCOC(=O)c1ccc(N=Cc2c(O)n(-c3ccc(OC)cc3)c(=S)[nH]c2=O)cc1,"inconclusive: 39.8 µM [fluorescent, side channel, single point]",–
Oc1ccc(Cl)cc1Sc1cc(Cl)ccc1O,"inconclusive: 35.5 µM [quencher, side channel, partial curve]",–
CCN(c1ccc(C)cc1C)S(=O)(=O)c1nnc(NC(=O)c2ccco2)s1,"inconclusive: 31.6 µM [quencher, side channel, partial curve]",–
CCC(C)C(=O)c1c(O)c(C)c2oc3c(C)c(O)c(C(=O)C(C)CC)c(O)c3c2c1O (centres undefined),"inconclusive: 8.91 µM [quencher, side channel, partial curve]",–
CN1c2ccc([N+](=O)[O-])cc2CC2(C(=O)NC(=O)N(c3ccc(Br)cc3)C2=O)C1c1ccccc1 (centres undefined),"inconclusive: 10 µM [quencher, side channel, partial curve]",–
Cc1cc(C(=O)CS(=O)(=O)c2ccc(F)cc2)cc(C)c1OC(=O)N(C)C,inactive,–
